Some of the results follow. At the low end of the ranking the order means little. Measured with an extract: partners may take part in the binding.
biological target: T1, HNF4alpha2 (COS-7 nuclear extract) (UniProt P41235); assay: protein-binding microarray; settings: COS-7 nuclear extract on double-stranded Agilent 4x180k PBM; binding buffer, salt, pH and temperature not given; high values mean tight binding; double strand, one strand shown; sequences stand for … in …GCCTAGGGAGATTAGAGTATCGGTCGA
T1 sequence: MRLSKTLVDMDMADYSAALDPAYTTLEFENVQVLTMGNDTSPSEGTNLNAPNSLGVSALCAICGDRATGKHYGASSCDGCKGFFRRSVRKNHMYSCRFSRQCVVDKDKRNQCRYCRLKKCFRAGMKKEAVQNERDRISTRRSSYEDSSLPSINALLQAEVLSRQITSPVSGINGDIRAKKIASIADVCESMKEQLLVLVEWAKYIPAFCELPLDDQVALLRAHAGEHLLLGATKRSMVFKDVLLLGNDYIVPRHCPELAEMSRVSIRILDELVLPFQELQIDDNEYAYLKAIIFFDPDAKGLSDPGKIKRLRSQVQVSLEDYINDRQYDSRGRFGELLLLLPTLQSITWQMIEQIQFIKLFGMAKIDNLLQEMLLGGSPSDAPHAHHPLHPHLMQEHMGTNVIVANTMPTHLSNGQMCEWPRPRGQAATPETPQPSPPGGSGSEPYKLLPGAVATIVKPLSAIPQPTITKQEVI

Sequence | binding signal (log2 normalized intensity)
TCACAAGCATGGGCCTCCTCTTCTTTGGGC | 0.308
CTTCAAGATGGCATCACTCTTGCCACAGAA | -1.08
ATTGTTTACTGGTGAACATAAATCGCAAAT | -1.03
TGAGACACGTGTGCCATGCCAAAGAAGCAA | -1.07
ATCTCGGGGCTGGCATGTCTCTGGTCAGGG | 1.16
AACACGGGCGAAAAAGACGCGGTCTCAGTT | -1.18
GCGAAGCCGGCGGCGGAATGCTTGTCTAGT | -1.31
CAAGTGACTGATAAGGCTAAGTGGAGGATT | -1.11
AGAATGCAGAAACAAATACAGACACACCTA | -1.27
AGGGAAATGCAAACATTTCTGGAATGTCCA | 0.0104
AGAGAAGATTCCAGAGGGAGGGAGGGTGGA | -1.21
TATCTTACCTCCTTCTCCCCCATGCCCCTG | 5.28
ACCTGGAACTGAAAGAGACCTTTGACATCA | 4.5
CATCTGATAGCTAAACCAGATACGTGGGTC | 0.854
ATCTATTTTCTATTTCCACTGAGGTCAAGA | 2.09
TGTGGTTAAGACTCAAAGTTCAGTCGAATT | 2.16
TCTTAGAGGCACCCATCCCTTTGCAATAAA | 1.62
TCTCCTAACTATGGTCACGCGGCCAAAATG | -1.21
CAAAAATATCTTTGTCTCAGGAACTTTGTT | 1.85
ATGCCAGCTAAGATCAGTAGCTAGGAGACA | -1.17
CATTGCAAATTGGATGTTGAACCTCTGTCC | 3.15
GGAGGGGAAGCTGGGCAGGCGCCGACTGCC | -1.15
AAAACATTGTACCTTCTACCGTACCTAGGA | -0.718
GGGGGTCAGAAGTCCAACATTAGTATCACT | 3.82
GTCCATCACCTGGCTCTGAAAAACAAAATG | -0.612

Sequence | binding signal (log2 normalized intensity)
TTGTCTTTTCGGAAGAACTGGTTCTGTGGA | 1.81
GTCTTTGCCCCTGGACTTTGAATTTCCCCA | 4.54
AACTAGGGTTCCAAGACCAAGCAAGCCAGT | -1.15
TTACCATATTTACTTATGGTTTGACCCTGC | 4.65
AGATGTTATTACTTAATGCTTTGAATCCTT | 0.398
ACTTGGGTTTATGGCTTATGCATGTTTATG | 2.18
CCCCAAATTCCTTTCAAACTGTATTGCTCA | 1.07
AGATAGGTTAAAATTTATCTATTGGGTACA | 1.42
CTGTCTTCATCCTGAGAGGGCTCAAGGTCT | 1.49
CTGGAATGTCACAGGGATTACGATCCTGCC | -0.996
CCTTCACAAATTAGACAAGGTTTGTAACAA | 1.01
CCCCAATCAGGTTTCTCAAGTGATCGAAGG | 1.59
TGAGCAAGATAATGACTAAGGCAGGGAAGG | -1.08
CGATGGGCTGGCCCTGAGCCAAGGGAGCAC | -1.19
ATGTAAATAAGAGCTTTGCATAAGCCAGAC | -1.23
CTGGGAAGATTAAGGAAGGAAGGTGCTTAT | -0.85
ACCTTTGTTCACAGTGACGTTCTGCCCCTT | 4.02
GACCTCAGCCCTCAGGGGCCTTCAGATAAA | -0.808
GAAGCTTTCTGAGAAACTTCTTTGTGATGT | 0.632
GTCCGCCCTTCCCCGCTCTCCCCGCCCCCT | 6.53
CTGACCTACCTGACCTGGCATACTACAGAA | -1.1
ATCACTCCTGGTTGGCAAACAAAAAGCTCT | -1.15
GGCAGCAAGTATTCAAGAAAGGGGCAAAGT | 2.14
TGGGAATTGGGATGGCAGCTTCATTCCAGC | -1.11
GTCAGTGAACTGTGGTTGACAGGCAACAAT | 0.656

Sequence | binding signal (log2 normalized intensity)
CCGCCACCCCCCAGAGGGCCATCTAGCTTA | 2.7
CGAATGGTCGCGCCGGGCGCCGCTCTGAGT | -1.12
CAGGGATAGCGCCCACACTGCCCATCCCCA | 2.22
GCTGGAGGTGTTAAAGTGCCATTGAGATGG | 0.489
TGCAGTACTTTTCAGGAACTGTTCTTTGAC | 1.18
TCATGGCTTAAAACGACTGATTCTCAGGCA | -1.04
GAGGATGAGGACTTTGGTCTTATTACTAAG | 2.86
AGCTCAGTGGAAATTGTCCTGCGGTTGGCT | -0.78
TATCTCTCCCCCACCACTGCTTCCTGCCCC | 5.62
GCCAGAAAAGCAAACCGAGATCAAGGGACA | -1.1
CTTACAGGACAAAAGTAAATATGGTTTACC | 0.322
GGACAGCTGGCCTCATGCCTTATCTACATA | -0.765
AATCTTCCTTCTTACAGCTGGCTCACTATT | 1.19
TCAGACTGAGAGAGCAGGGCCCGAGGCCTT | -1.2
ATTACCAATGAGAAACCTCAAAGGTTAGGG | -0.928
ATAAGCGAAGATAACCTACTTAAAAAGAAA | -0.986
TCCAGAAGAAAGGGGAGATAATGCCAGAAA | -0.923
GAGGGCGAGAAGTAGGTGCAAGGGAATGTA | -0.245
TATCAGAAGAACTGCACTGTATCTTATCAG | -1.04
TACACAGTGCCTGCTTGCAGATAAAACATT | -0.831
GGGCAGAGAGGCTGCCATCCCACATTCCAC | -1.13
TCTGACCTCTTTCAAGCCTGAACAAACATG | 0.93
ATAAAGGGTGTGAGAGAGAAGGCAAGATTT | -0.713
TATGAGCTATGATTGCGCCACTGCATTCCA | -1.12
CCTTCCGGAGGCTCTGCTGAAGAGAAGCCA | -1.13

Sequence | binding signal (log2 normalized intensity)
GTTGGCAAACAAAAAGCTCTGCCTACGCAT | -1.13
GACCTCATTTGCTCCCAGTGCACACAGACT | -1.02
GGAAAGCTGCAGGCATGAGAGGTGCTGCAT | -1.03
GAGCCAGAGGGGCCAGGAACGTCACACTGA | -1.08
TCAATGGTTGCACTCTGGTGCCCTCTGAGT | 2.17
CCTCCTCTGAAGGAACTTCTGGTTCTTTCT | 0.402
GGCTCTCCCGGGGCGGGGGTGACCAGATTA | 1.43
CCTAAAATTGACCTTTGATCACTCATGGGC | 8.21
TTAGCTATTTGACCTTCGGCCTCAATTATA | 6.43
TCCGAACCTGCCAAAGAAGAAAACAATGAC | -1.2
TTATCTAAATGGAGTTACTGTTGCTTCGTG | 1.57
CCTCTGAGTCCTCTTCCCAACTTGGCCTCA | 1.49
ACTCTGTGAGAAGGGGTAGTGATCCTGGTA | 0.899
ATCCCCTCCTGGACTTTGGTCTCATGGGCC | 6.4
TGGCGCTGTTGACCTTGAAATGCCATGTGA | 1.37
ACCTTTAAGCACCCAGAGCCCCACCGTTGT | 2.83
GTAACGTGTCAGAGGTCACTCAGCAATAAA | 1.36
TTAGTAACTGACTTTAACTTCAAAGTCCTG | 0.735
GAGCATATAAAAGCAGTCTACACTAGGAGG | -1.1
TCACAATCACAAATGCCTTCAGGGGCATTT | -0.657
GAAAAAGCCCAAGAAACTTCAAAGAGTGCA | -1.02
AATAATCTAGAAACCAGTGAGAAAATGGTG | 0.485
TCCGAACTATTTGGTGCACAAGAGGGCAGT | 1.58
GGATCCTTGGAGGACCTTGGGTTCATTTTA | 1.97
CCCTGGTCCAGGCCATGCAACAGCCTCCTC | -1.19

Sequence | binding signal (log2 normalized intensity)
ATAGCCACTGGGGTCATGGAGCTGGAGGGC | 0.136
ATCGCCCTTTGAGGAGGCCTTTCCTGACCC | 2.78
CTCCGGTCAAGATCAAGTGGAGCCTCTCCT | -1.07
TAGGTTTTTTTTTTTTTTAACGGTCTGCCC | 2.59
GTTGCCCGCTTGGCCCTCTTCCAAGTGTTC | 1.46
GAAATAAAAGAGCCTGAGCCACTTCACTGG | -1
TATGTGCTCACTCCTGGGACAAGGACTTTG | 2.85
TTGGGAGGGAAGAGGCAAGGAAAGATAAAT | -0.832
GAGCTCTGTGTCAAAAATCAGGGACAAAGT | 1.49
CCACACAGCCTGTCAAAGGGAGAAAGACAT | -1.14
TTCAAATCCTTGCTCTGTGGTTTAGTGGTT | 2.31
TGCATGCTGCCAAACTGCCCAGCAGAAAAG | -1.11
CCAAGATTGAGGCCAGCAAAGGGCAAGTAA | 0.975
ACATGAGTAAACAAGCTCTTTAGATAAACT | -1.05
ACTACATTCTTTGAAGACTAGGCTCCAGAT | -1.1
TCACGTTGGGGGTGCTGATGTTAACACAAG | -0.824
AGCAAACCCCAGCTGAACTCACTACCCTAT | -1.15
TTTGGGTAGGAATAGAGCTCTAAACCACCC | -1.13
CTGCCCTACTGTATATCCTGACACAGGAAG | -0.467
AGTTCTGGGCCAAAGGTCATACCTGTCTAG | 5.59
AGGAGAAGCTGGAAGGACAGCATTCCTGTC | -1.04
AAAGGTCAGGAATCGCATTGCAAAATCCAT | -1.07
AATAAATGTCATTTAAGACGAGTGGTTTGA | 0.537
CTCCAAATTCCAGGATCCAAGATCCAACTC | -1.24
GGGGCTGCTGGCATCTCATTACTGACAGAG | -1.26

Sequence | binding signal (log2 normalized intensity)
ACCTCTGTCCTTGGCCTCACAGACAGATAG | -1.12
TGTTTATCCTGCCTCCATTAATTAACCTTT | 4.68
ACTCAGTTGAAGTTCCAGAAGACTACAAAT | -1.14
TTGCCCTGTGGTCTAGCTTGTTCTCTCCCC | 2.4
TAAGACTATCTCATGACAGACCTAAGAACT | -1.16
AAGCAGCATTAGCCTCTATGTCAGGCCATT | -1.16
GCCCAGAGCCAGGTGTGCTGAGGAAACTGA | -0.977
AAAGTTTCCTCTCCTGCCCTACTCCCTTAA | 2.68
CTTGCTTTGTCACCCAGGCTGAAGTCCAGT | 2.13
TCACAATGGGCCCCAGTAAAAACAGTGGGC | -1.01
GCTGACAGCAGAGAGTTTTCCTTGGCTGTG | -1.05
GAGGCACAGTCTGCTTTCAGAGATGATAAG | -0.926
TATTTCAAGAATGCAAAGCCCTGGCTGACC | 0.797
GTATCCCTTGCTCAACTCCCTCTGAAGGGA | -1.22
AGCCTCACCAACAGGATTGTGAAACGTTTG | 0.703
AAAAAGCCTGAGCATCTTATCAGCAGGAGA | -1.15
TGGACTTTGGAATTAAGGAGATTTGGCTTT | 4.84
AGGCAGTGTCACAGAAATCATGTAGCCAGA | -1.16
AAGTGTTTAACTCTTTATCTTTCTCCTACA | -1.06
TATCAGCAGGAGGAGGAGCCAGTGAAGACT | -1.01

Source: publication PMC10726135
